# The supplement of paper PMC8728848
# This is one part of the list.
# B1: Surfactant Protein D (Human); Neck + Carbohydrate Recognition Domain (NCRD) (Homo sapiens) (protein)
# chain: MLLFLLSALVLLTQPLGYLEAEMKTYSHRTMPSACTLVMCSSVESGLPGRDRDGREGPRGEKGDPGLPGAAGQAGMPGQAGPVGPKGDNGSVGEPGPKGDTGPSGPPGPPGVPGPAGREGALGKQGNIGPQGKPGPKGEAGPKGEVGAPGMQGSAGARGLAGPKGERGVPGERGVPGNTGAAGSAGAMGPQGSPGARGPPGLKGDKGIPGDKGAKGESGLPDVASLRQQVEALQGQVQHLQAAFSQYKKVELFPNGQSVGEKIFKTAQFVKPFTEAQLLCTQAGGQLASPRSAAENAALQQLVVAKNEAAFLSMTDSKTEGKFTYPTGESLVYSNWAPGEPNDDGGSEDCVEIYTNGKWNDRACGEKRLVVCEF
# Legend:
# Assay in all cases: glycan array binding signal (z-score within array); higher = stronger binding
# Details in all cases: glycan notation: IUPAC condensed, linker removed; mutation: F335Y
# [1] = biological target: Neu5Ac(a2-3)Gal(b1-3)[Fuc(a1-4)]GlcNAc(b1-3)Gal(b1-4)[Fuc(a1-3)]GlcNAc
# Summary of the method: (§1)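 Glycan array binding is given as a within-array Z-score, which can be read as non-binding when negative. The arrays, 3228 of them, came from the Consortium for Functional Glycomics database and were retained only where the protein sequence was available. Z-scores were averaged across arrays of the same protein sequence at different concentrations or buffers and across linkers.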
# [2] = biological target: Neu5Ac(a2-3)Gal(b1-3)[Neu5Ac(a2-3)Gal(b1-4)]GlcNAc
# Summary of the method: as §1
# [3] = biological target: Neu5Ac(a2-3)Gal(b1-3)[Neu5Ac(a2-6)]GalNAc
# Summary of the method: as §1
# [4] = biological target: Neu5Ac(a2-3)Gal(b1-4)Glc
# Summary of the method: as §1
# [5] = biological target: Neu5Ac(a2-3)Gal(b1-4)GlcNAc
# Summary of the method: as §1
# [6] = biological target: Neu5Ac(a2-3)Gal(b1-4)GlcNAc(b1-2)Man(a1-3)[GlcNAc(b1-2)Man(b1-4)GlcNAc(b1-2)Man(a1-6)]Man(b1-4)GlcNAc(b1-4)GlcNAc
# Summary of the method: as §1
# [7] = biological target: Neu5Ac(a2-3)Gal(b1-4)GlcNAc(b1-2)Man(a1-3)[Neu5Ac(a2-6)Gal(b1-4)GlcNAc(b1-2)Man(a1-6)]Man(b1-4)GlcNAc(b1-4)GlcNAc
# Summary of the method: as §1
# [8] = biological target: Neu5Ac(a2-3)Gal(b1-4)GlcNAc(b1-3)Gal(b1-3)GlcNAc
# Summary of the method: as §1
# [9] = biological target: Neu5Ac(a2-3)Gal(b1-4)GlcNAc(b1-3)Gal(b1-4)GlcNAc
# Summary of the method: as §1
# [10] = biological target: Neu5Ac(a2-3)Gal(b1-4)GlcNAc(b1-3)Gal(b1-4)GlcNAc(b1-3)Gal(b1-4)GlcNAc
# Summary of the method: as §1
# [11] = biological target: Neu5Ac(a2-3)Gal(b1-4)GlcNAc(b1-3)Gal(b1-4)[Fuc(a1-3)]GlcNAc
# Summary of the method: as §1
# [12] = biological target: Neu5Ac(a2-3)Gal(b1-4)GlcNAc(b1-6)[Gal(b1-3)]GalNAc
# Summary of the method: as §1
# [13] = biological target: Neu5Ac(a2-3)Gal(b1-4)GlcNAc(b1-6)[Neu5Ac(a2-3)Gal(b1-3)]GalNAc
# Summary of the method: as §1
# [14] = biological target: Neu5Ac(a2-3)Gal(b1-4)GlcNAc6S
# Summary of the method: as §1
# [15] = biological target: Neu5Ac(a2-3)Gal(b1-4)[Fuc(a1-3)]GlcNAc
# Summary of the method: as §1
# [16] = biological target: Neu5Ac(a2-3)Gal(b1-4)[Fuc(a1-3)]GlcNAc(b1-3)Gal
# Summary of the method: as §1
# [17] = biological target: Neu5Ac(a2-3)Gal(b1-4)[Fuc(a1-3)]GlcNAc(b1-3)Gal(b1-4)GlcNAc
# Summary of the method: as §1
# [18] = biological target: Neu5Ac(a2-3)Gal(b1-4)[Fuc(a1-3)]GlcNAc(b1-3)Gal(b1-4)[Fuc(a1-3)]GlcNAc(b1-3)Gal(b1-4)[Fuc(a1-3)]GlcNAc
# Summary of the method: as §1
# [19] = biological target: Neu5Ac(a2-3)Gal(b1-4)[Fuc(a1-3)]GlcNAc(b1-6)[Gal(b1-3)]GalNAc
# Summary of the method: as §1
# [20] = biological target: Neu5Ac(a2-3)Gal(b1-4)[Fuc(a1-3)]GlcNAc6S
# Summary of the method: as §1
# [21] = biological target: Neu5Ac(a2-3)Gal6S(b1-4)GlcNAc
# Summary of the method: as §1
# [22] = biological target: Neu5Ac(a2-3)Gal6S(b1-4)[Fuc(a1-3)]GlcNAc
# Summary of the method: as §1
# [23] = biological target: Neu5Ac(a2-3)GalNAc
# Summary of the method: as §1
# [24] = biological target: Neu5Ac(a2-3)GalNAc(b1-4)GlcNAc
# Summary of the method: as §1
# [25] = biological target: Neu5Ac(a2-3)[GalNAc(b1-4)]Gal(b1-4)Glc
# Summary of the method: as §1
# [26] = biological target: Neu5Ac(a2-3)[GalNAc(b1-4)]Gal(b1-4)GlcNAc
# Summary of the method: as §1
# [27] = biological target: Neu5Ac(a2-3)[Neu5Ac(a2-6)]GalNAc
# Summary of the method: as §1
# [28] = biological target: Neu5Ac(a2-6)Gal
# Summary of the method: as §1
# [29] = biological target: Neu5Ac(a2-6)Gal(b1-4)Glc
# Summary of the method: as §1
# [30] = biological target: Neu5Ac(a2-6)Gal(b1-4)GlcNAc
# Summary of the method: as §1
# [31] = biological target: Neu5Ac(a2-6)Gal(b1-4)GlcNAc(b1-2)Man(a1-3)[Gal(b1-4)GlcNAc(b1-2)Man(a1-6)]Man(b1-4)GlcNAc(b1-4)GlcNAc
# Summary of the method: as §1
# [32] = biological target: Neu5Ac(a2-6)Gal(b1-4)GlcNAc(b1-2)Man(a1-3)[GlcNAc(b1-2)Man(a1-6)]Man(b1-4)GlcNAc(b1-4)GlcNAc
# Summary of the method: as §1
# [33] = biological target: Neu5Ac(a2-6)Gal(b1-4)GlcNAc(b1-2)Man(a1-3)[GlcNAc(b1-2)Man(b1-4)GlcNAc(b1-2)Man(a1-6)]Man(b1-4)GlcNAc(b1-4)GlcNAc
# Summary of the method: as §1
# [34] = biological target: Neu5Ac(a2-6)Gal(b1-4)GlcNAc(b1-2)Man(a1-3)[Neu5Ac(a2-6)Gal(b1-4)GlcNAc(b1-2)Man(a1-6)]Man(b1-4)GlcNAc(b1-4)GlcNAc
# Summary of the method: as §1
# [35] = biological target: Neu5Ac(a2-6)Gal(b1-4)GlcNAc(b1-2)Man(a1-6)[Gal(b1-4)GlcNAc(b1-2)Man(a1-3)]Man(b1-4)GlcNAc(b1-4)GlcNAc
# Summary of the method: as §1
# [36] = biological target: Neu5Ac(a2-6)Gal(b1-4)GlcNAc(b1-2)Man(a1-6)[GlcNAc(b1-2)Man(a1-3)]Man(b1-4)GlcNAc(b1-4)GlcNAc
# Summary of the method: as §1
# [37] = biological target: Neu5Ac(a2-6)Gal(b1-4)GlcNAc(b1-3)Gal(b1-4)GlcNAc
# Summary of the method: as §1
# [38] = biological target: Neu5Ac(a2-6)Gal(b1-4)GlcNAc(b1-3)Gal(b1-4)[Fuc(a1-3)]GlcNAc(b1-3)Gal(b1-4)[Fuc(a1-3)]GlcNAc
# Summary of the method: as §1
# [39] = biological target: Neu5Ac(a2-6)Gal(b1-4)GlcNAc6S
# Summary of the method: as §1
# [40] = biological target: Neu5Ac(a2-6)GalNAc
# Summary of the method: as §1
# [41] = biological target: Neu5Ac(a2-6)GalNAc(b1-4)GlcNAc
# Summary of the method: as §1
# [42] = biological target: Neu5Ac(a2-8)Neu5Ac
# Summary of the method: as §1
# [43] = biological target: Neu5Ac(a2-8)Neu5Ac(a2-3)Gal(b1-4)Glc
# Summary of the method: as §1
# [44] = biological target: Neu5Ac(a2-8)Neu5Ac(a2-3)[GalNAc(b1-4)]Gal(b1-4)Glc
# Summary of the method: as §1
# [45] = biological target: Neu5Ac(a2-8)Neu5Ac(a2-8)Neu5Ac
# Summary of the method: as §1
# [46] = biological target: Neu5Ac(a2-8)Neu5Ac(a2-8)Neu5Ac(a2-3)Gal(b1-4)Glc
# Summary of the method: as §1
# [47] = biological target: Neu5Ac(a2-8)Neu5Ac(a2-8)Neu5Ac(a2-3)[GalNAc(b1-4)]Gal(b1-4)Glc
# Summary of the method: as §1
# [48] = biological target: Neu5Ac(a2-8)Neu5Ac(a2-8)Neu5Ac(a2-8)Neu5Ac(a2-3)[GalNAc(b1-4)]Gal(b1-4)Glc
# Summary of the method: as §1
# [49] = biological target: Neu5Ac(b2-6)Gal(b1-4)GlcNAc
# Summary of the method: as §1
# [50] = biological target: Neu5Ac(b2-6)GalNAc
# Summary of the method: as §1
# [51] = biological target: Neu5Ac9Ac(a2-6)Gal(b1-4)GlcNAc
# Summary of the method: as §1
# [52] = biological target: Neu5Gc(a2-3)Gal(b1-3)GlcNAc
# Summary of the method: as §1
# [53] = biological target: Neu5Gc(a2-3)Gal(b1-3)[Fuc(a1-4)]GlcNAc
# Summary of the method: as §1
# [54] = biological target: Neu5Gc(a2-3)Gal(b1-4)Glc
# Summary of the method: as §1
# [55] = biological target: Neu5Gc(a2-3)Gal(b1-4)GlcNAc
# Summary of the method: as §1
# [56] = biological target: Neu5Gc(a2-3)Gal(b1-4)[Fuc(a1-3)]GlcNAc
# Summary of the method: as §1
# [57] = biological target: Neu5Gc(a2-6)Gal(b1-4)GlcNAc
# Summary of the method: as §1
# [58] = biological target: Neu5Gc(a2-6)GalNAc
# Summary of the method: as §1
# [59] = biological target: Neu5Gc(b2-6)Gal(b1-4)GlcNAc
# Summary of the method: as §1
binder,measurement,setting,value
B1,glycan array binding signal (z-score),[1],-0.071
same,glycan array binding signal (z-score),[2],-0.185
same,glycan array binding signal (z-score),[3],-0.166
same,glycan array binding signal (z-score),[4],-0.189
same,glycan array binding signal (z-score),[5],-0.188
same,glycan array binding signal (z-score),[6],-0.182
same,glycan array binding signal (z-score),[7],-0.164
same,glycan array binding signal (z-score),[8],-0.184
same,glycan array binding signal (z-score),[9],-0.189
same,glycan array binding signal (z-score),[10],-0.183
same,glycan array binding signal (z-score),[11],-0.164
same,glycan array binding signal (z-score),[12],-0.186
same,glycan array binding signal (z-score),[13],-0.178
same,glycan array binding signal (z-score),[14],-0.19
same,glycan array binding signal (z-score),[15],-0.182
same,glycan array binding signal (z-score),[16],-0.182
same,glycan array binding signal (z-score),[17],-0.172
same,glycan array binding signal (z-score),[18],-0.187
same,glycan array binding signal (z-score),[19],-0.077
same,glycan array binding signal (z-score),[20],-0.191
same,glycan array binding signal (z-score),[21],-0.189
same,glycan array binding signal (z-score),[22],-0.186
same,glycan array binding signal (z-score),[23],-0.177
same,glycan array binding signal (z-score),[24],-0.176
same,glycan array binding signal (z-score),[25],-0.188
same,glycan array binding signal (z-score),[26],-0.185
same,glycan array binding signal (z-score),[27],-0.192
same,glycan array binding signal (z-score),[28],-0.19
same,glycan array binding signal (z-score),[29],-0.187
same,glycan array binding signal (z-score),[30],-0.19
same,glycan array binding signal (z-score),[31],-0.18
same,glycan array binding signal (z-score),[32],-0.185
same,glycan array binding signal (z-score),[33],-0.184
same,glycan array binding signal (z-score),[34],-0.174
same,glycan array binding signal (z-score),[35],-0.177
same,glycan array binding signal (z-score),[36],-0.065
same,glycan array binding signal (z-score),[37],-0.188
same,glycan array binding signal (z-score),[38],-0.122
same,glycan array binding signal (z-score),[39],-0.187
same,glycan array binding signal (z-score),[40],-0.179
same,glycan array binding signal (z-score),[41],-0.19
same,glycan array binding signal (z-score),[42],-0.185
same,glycan array binding signal (z-score),[43],-0.188
same,glycan array binding signal (z-score),[44],-0.189
same,glycan array binding signal (z-score),[45],-0.187
same,glycan array binding signal (z-score),[46],-0.189
same,glycan array binding signal (z-score),[47],-0.188
same,glycan array binding signal (z-score),[48],-0.126
same,glycan array binding signal (z-score),[49],-0.19
same,glycan array binding signal (z-score),[50],-0.19
same,glycan array binding signal (z-score),[51],-0.183
same,glycan array binding signal (z-score),[52],-0.184
same,glycan array binding signal (z-score),[53],-0.186
same,glycan array binding signal (z-score),[54],-0.186
same,glycan array binding signal (z-score),[55],-0.195
same,glycan array binding signal (z-score),[56],-0.177
same,glycan array binding signal (z-score),[57],-0.193
same,glycan array binding signal (z-score),[58],-0.187
same,glycan array binding signal (z-score),[59],-0.159
